# Assay results taken from the supplement of paper PMC7335073.
# In all, about 4,100 sequences were measured (“relative CpG methylation activity (normalised to average over all NNNCGNNN flanks)”: median about 0.94, highest 2% from about 1.9 on). Some of the results follow.
# Target: DNMT3B catalytic domain (mouse) (UniProt O88509)
# Test: relative CpG methylation activity (normalised to average over all NNNCGNNN flanks) (relative (1 = mean)); higher = more methylation of the central CpG
# Settings: system: in vitro, murine catalytic domain; CpG state: hemimethylated substrate pool; residues: 558-859
# How it was run: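 Pooled dsDNA substrates with a central CpG inside 10 random flanking nucleotides were methylated by murine DNMT3A or DNMT3B catalytic domain with 0.8 mM S-adenosyl-L-methionine in HEPES pH 7.5 buffer for 60 min at 37 °C. The DNA then went through proteinase K, BsaI-HFv2 digestion, hairpin ligation, bisulfite conversion and two-step PCR before Illumina sequencing. Relative methylation activity is the average methylation of each context with three flanking bases per side, divided by the mean over all contexts. Each experiment had two independent repeats.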
# Sequence of UniProt O88509 (O88509 558-859): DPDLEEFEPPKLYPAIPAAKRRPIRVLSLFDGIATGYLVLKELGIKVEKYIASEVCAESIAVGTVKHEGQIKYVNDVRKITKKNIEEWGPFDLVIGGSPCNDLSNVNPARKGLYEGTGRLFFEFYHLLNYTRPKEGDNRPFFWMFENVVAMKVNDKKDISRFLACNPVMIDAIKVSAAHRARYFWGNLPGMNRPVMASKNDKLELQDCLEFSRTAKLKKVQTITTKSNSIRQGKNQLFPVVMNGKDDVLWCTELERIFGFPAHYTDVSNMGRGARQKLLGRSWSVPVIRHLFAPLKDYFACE
row,Sequence,relative CpG methylation activity
1,GAGCGAAA,0.801
2,AACCGATT,1.2
3,ACTCGTTA,0.3
4,GCCCGTCG,0.607
5,AAGCGTTC,0.586
6,CGACGTCA,0.716
7,GGACGGGG,1.23
8,CTGCGCAT,0.967
9,ACACGAAC,1.71
10,GACCGTTT,0.177
11,GCCCGATT,1.53
12,CTTCGGAA,1.22
13,CCGCGCCT,0.73
14,AAGCGCCG,0.713
15,GGACGAAA,1.19
16,CAGCGGTT,1.06
17,AGTCGGTT,1.27
18,AAGCGATG,0.771
19,CGTCGCCC,1.09
20,TTTCGACT,1.54
21,TCACGTGG,0.466
22,GACCGGTT,0.949
23,AGCCGACA,0.675
24,CTTCGCCT,1.22
25,GGACGCAT,0.454

row,Sequence,relative CpG methylation activity
1,TAACGCTT,1.19
2,TAGCGAGC,1.26
3,CGTCGCTA,0.476
4,TAACGCTC,1.54
5,ACGCGACG,0.786
6,TTTCGCAG,0.732
7,TGCCGTAA,0.264
8,ATTCGGCT,1.69
9,TCCCGGTG,1.36
10,TTGCGGGA,1.34
11,TTGCGGGC,1.4
12,GACCGGAT,0.42
13,GTGCGTCG,0.758
14,ACCCGTGC,0.783
15,TTCCGATG,1.47
16,CAGCGACC,0.972
17,GGTCGTCT,0.505
18,GCTCGCGG,0.289
19,CTGCGATC,1.46
20,TATCGGAG,0.733
21,TCACGGCG,1.89
22,TCTCGGTT,0.917
23,TAACGGTC,1.52
24,TAACGCCC,1.56
25,GGCCGTTC,0.252

row,Sequence,relative CpG methylation activity
1,TGTCGCAA,0.427
2,GTCCGATA,1.62
3,CCCCGGTA,1.5
4,AAACGACC,1.48
5,GTTCGCCT,1.22
6,GCACGGTT,1.31
7,CAACGCAC,1.21
8,CGCCGGAT,0.504
9,CCCCGAAT,1.61
10,CTACGCTA,1.47
11,CATCGGGG,1.21
12,TATCGCAC,0.634
13,CTTCGCTG,1.06
14,AAGCGCAG,0.241
15,CTGCGTCG,1.08
16,AGGCGGGG,0.357
17,CTCCGTTA,0.542
18,CATCGAGG,1.71
19,GAACGATT,1.71
20,TGCCGTTG,0.159
21,AGACGGGA,1.28
22,CCACGCCC,1.47
23,CCCCGGAA,1.02
24,CCACGCTC,1.44
25,AAGCGGAC,0.569

row,Sequence,relative CpG methylation activity
1,GACCGCGC,0.39
2,AACCGCTT,0.34
3,ATTCGCTG,0.586
4,GTCCGAGG,1.82
5,TTGCGTGT,0.841
6,AAGCGTTA,0.394
7,CCTCGTCT,0.775
8,GGTCGATC,1.48
9,TCACGACT,1.44
10,TCACGCAA,0.748
11,TGGCGTGT,0.0208
12,CCCCGGAG,0.625
13,TTGCGAAC,1.41
14,CGCCGGTC,1.23
15,GGTCGGTG,0.742
16,ACCCGTTC,0.948
17,AACCGCAT,0.311
18,CGTCGTAC,0.909
19,TAGCGCCC,0.741
20,CATCGGAG,0.952
21,AGTCGTTT,0.495
22,TATCGTTC,0.641
23,GCTCGGCC,1.64
24,AATCGGGA,1.26
25,CTACGTAA,1.32

row,Sequence,relative CpG methylation activity
1,TGCCGACG,0.593
2,TAACGATA,1.81
3,GGTCGAAA,1.08
4,CAGCGTAT,0.615
5,ATTCGAAG,0.959
6,CTACGGAA,1.68
7,TAACGTAT,0.983
8,TTCCGGAG,0.913
9,AACCGGAG,0.433
10,TGGCGGCC,0.876
11,CGGCGGTG,0.397
12,GTTCGTCA,0.524
13,TTTCGGCT,2.04
14,CACCGCCG,0.625
15,TCGCGCCT,0.882
16,GGACGGTC,1.37
17,AGTCGCTG,0.623
18,TAGCGTAG,0.69
19,TAGCGGGA,1.02
20,CCCCGATC,1.88
21,GAGCGGGT,0.902
22,GCCCGACT,1.33
23,TCGCGGTG,0.846
24,CTTCGTTC,1.18
25,TGGCGAGT,0.781

row,Sequence,relative CpG methylation activity
1,ATACGGTA,1.64
2,GGTCGCAA,0.259
3,TTGCGATT,1.32
4,CTCCGGCA,1.88
5,CAGCGTAC,0.833
6,TACCGTGT,0.198
7,CGCCGTAC,0.561
8,CTACGCGC,1.73
9,CCGCGATG,0.901
10,TTACGTTT,1.19
11,CAACGCCG,1.32
12,ACACGTTG,0.587
13,TACCGCAA,0.249
14,CTCCGTAA,0.725
15,AAGCGGAG,0.321
16,TGCCGCCT,0.358
17,GTTCGCAC,0.91
18,CGGCGTCA,0.45
19,CACCGTAC,0.99
20,AAGCGTCT,0.966
21,CTACGTAG,0.804
22,CCGCGAAT,0.806
23,TACCGATT,1.29
24,ATGCGGGG,1.14
25,CCTCGGAG,0.787

row,Sequence,relative CpG methylation activity
1,GCGCGCCT,0.748
2,CCCCGTGT,0.336
3,CATCGGAT,0.93
4,GGTCGCTA,0.694
5,CCCCGCGG,0.703
6,GATCGTCA,0.485
7,ACTCGGAT,0.587
8,AATCGCTC,0.903
9,CCGCGATA,1.11
10,GCACGAGA,1.62
11,CAGCGACG,0.851
12,GTACGTGC,1.1
13,TGCCGAGC,1.58
14,GTACGCCC,1.64
15,AAGCGTAG,0.542
16,TAGCGGAC,0.794
17,TCGCGGCC,1.14
18,AACCGTGG,0.0794
19,CCGCGCGC,0.806
20,AGACGCCA,1.16
21,CGACGCCC,1.12
22,CACCGAGG,1.42
